Laboratory results published in the supplement of paper PMC4967469.
Lines with a small IC50 respond at low doses; a fit beyond the top or the lowest dose is shown as a bound at that dose. The AUC spans the tested range (256-fold, ending at the top dose) of the same fit; the more sensitive the line, the further below 1. For part of these data: Any top dose called inferred comes from the curve model; the source does not state it. For part of these data: Where an entry number is given, a second screen of the drug exists; the two often differ.

Assays:
Assay in all cases: Viability of human cancer cell lines after 72 h of drug (GDSC screen)
GDC0941 = compound: CS(=O)(=O)N1CCN(Cc2cc3nc(-c4cccc5[nH]ncc45)nc(N4CCOCC4)c3s2)CC1 [GDC0941]; details: top dose 4 µM; screen: GDSC drug entry 1527; top dose inferred
Protocol: (§1)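 Human cancer cell lines in 384-well plates, medium with 10% serum, drug for 72 h over a 256-fold dose range (nine 2-fold or five 4-fold steps up to the top dose). Adherent lines were fixed and stained with the nucleic acid dye Syto60, suspension lines read with resazurin; signal relative to control wells, capped at 0 and 100%. One two-parameter sigmoid per drug and line, fitted in a mixed model over all curves with the slope shared within a line.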

SB 216763 = compound: Cn1cc(C2=C(c3ccc(Cl)cc3Cl)C(=O)NC2=O)c2ccccc21 [SB 216763]; details: top dose 10 µM; top dose inferred
Protocol: as §1

Pazopanib = compound: Cc1ccc(Nc2nccc(N(C)c3ccc4c(C)n(C)nc4c3)n2)cc1S(N)(=O)=O [Pazopanib]; details: top dose 8 µM
Protocol: as §1

CEP-701 = compound: C[C@]12O[C@H](C[C@]1(O)CO)n1c3ccccc3c3c4c(c5c6ccccc6n2c5c31)CNC4=O [CEP-701]; details: top dose 2 µM; top dose inferred
Protocol: as §1

MG-132 = compound: CC(C)C[C@@H](C=O)NC(=O)[C@H](CC(C)C)NC(=O)[C@H](CC(C)C)NC(=O)OCc1ccccc1 [MG-132]; details: top dose 1 µM
Protocol: as §1

Sunitinib = compound: CCN(CC)CCNC(=O)c1c(C)[nH]c(/C=C2\C(=O)Nc3ccc(F)cc32)c1C [Sunitinib]; details: top dose 8 µM
Protocol: as §1

AR-42 = compound: CC(C)[C@H](C(=O)Nc1ccc(C(=O)NO)cc1)c1ccccc1 [AR-42]; details: top dose 5.12 µM; top dose inferred
Protocol: as §1

Row | Cell Line | AUC (GDC0941) | IC50 (GDC0941) [nM] | AUC (SB 216763) | IC50 (SB 216763) [nM] | AUC (Pazopanib) | IC50 (Pazopanib) [nM] | AUC (CEP-701) | IC50 (CEP-701) [nM] | AUC (MG-132) | IC50 (MG-132) [nM] | AUC (Sunitinib) | IC50 (Sunitinib) [nM] | AUC (AR-42) | IC50 (AR-42) [nM]
1 | KU812 (chronic myeloid leukaemia, suspension) | 0.951 | > 4000 | 0.988 | > 10000 | 0.819 | 4060 | 0.611 | 244 | 0.764 | 333 | 0.819 | 4050 | 0.101 | < 20
2 | L-428 (Hodgkin lymphoma, suspension) | 0.974 | > 4000 | 0.993 | > 10000 | 0.987 | > 8000 | 0.821 | 983 | 0.854 | 644 | 0.92 | > 8000 | 0.988 | > 5120
3 | L-1236 (Hodgkin lymphoma, suspension) | 0.795 | 1540 | 0.989 | > 10000 | 0.979 | > 8000 | 0.372 | 59 | 0.742 | 268 | 0.817 | 3600 | 0.38 | 158
4 | LAMA-84 (chronic myeloid leukaemia, suspension) | 0.973 | > 4000 | 0.968 | > 10000 | 0.883 | > 8000 | 0.444 | 87.6 | 0.708 | 244 | 0.757 | 2790 | 0.425 | 199
5 | LB1047-RCC (kidney, adherent) | 0.638 | 634 | 0.976 | > 10000 | 0.739 | 2650 | 0.457 | 93.8 | 0.882 | > 1000 | 0.625 | 1160 | 0.49 | 300
6 | LS-123 (large intestine, adherent) | 0.793 | 2540 | 0.946 | > 10000 | 0.973 | > 8000 | 0.777 | 1080 | 0.854 | > 1000 | 0.86 | > 8000 | 0.611 | 716
7 | LS-1034 (large intestine, adherent) | 0.812 | 2430 | 0.964 | > 10000 | 0.985 | > 8000 | 0.984 | > 2000 | 0.928 | > 1000 | 0.967 | > 8000 | 0.551 | 447
8 | LU-165 (small cell lung carcinoma, suspension) | 0.863 | > 4000 | 0.988 | > 10000 | 0.958 | > 8000 | 0.987 | > 2000 | 0.925 | > 1000 | 0.98 | > 8000 | 0.484 | 288
9 | MC-CAR (haematopoietic neoplasm, suspension) | 0.859 | 2760 | 0.989 | > 10000 | 0.96 | > 8000 | 0.499 | 124 | 0.937 | > 1000 | 0.904 | > 8000 | 0.334 | 117
10 | MEG-01 (chronic myeloid leukaemia, suspension) | 0.951 | > 4000 | 0.966 | > 10000 | 0.914 | > 8000 | 0.511 | 134 | 0.778 | 381 | 0.721 | 2020 | 0.529 | 382
11 | MOLT-4 (lymphoblastic leukaemia, suspension) | 0.338 | 97.6 | 0.977 | > 10000 | 0.99 | > 8000 | 0.403 | 71.6 | 0.746 | 267 | 0.818 | 3470 | 0.332 | 121
12 | MPP-89 (mesothelioma, adherent) | 0.835 | 3840 | 0.953 | > 10000 | 0.772 | 4050 | 0.597 | 251 | 0.858 | > 1000 | 0.911 | > 8000 | 0.294 | 69.4
13 | MRK-nu-1 (breast, suspension) | 0.989 | > 4000 | 0.981 | > 10000 | 0.945 | > 8000 | 0.937 | > 2000 | 0.797 | 430 | 0.9 | > 8000 | 0.801 | 2260
14 | MZ2-MEL (melanoma, adherent) | 0.58 | 430 | 0.98 | > 10000 | 0.842 | 7130 | 0.626 | 296 | 0.642 | 166 | 0.9 | > 8000 | 0.75 | 1940
15 | NB1 (neuroblastoma, semi-adherent) | 0.787 | 1930 | 0.979 | > 10000 | 0.968 | > 8000 | 0.778 | 894 | 0.792 | 506 | 0.711 | 2120 | 0.853 | 4660
16 | NB5 (neuroblastoma, adherent) | 0.674 | 767 | 0.859 | 8470 | 0.984 | > 8000 | 0.695 | 444 | 0.832 | 651 | 0.92 | > 8000 | 0.592 | 575
17 | NB-4 (acute myeloid leukaemia, suspension) | 0.675 | 694 | 0.991 | > 10000 | 0.963 | > 8000 | 0.359 | 55 | 0.773 | 320 | 0.746 | 2150 | 0.209 | 55.4
18 | NCI-H82 (small cell lung carcinoma, suspension) | 0.975 | > 4000 | 0.989 | > 10000 | 0.972 | > 8000 | 0.447 | 90.6 | 0.907 | > 1000 | 0.877 | 7330 | 0.762 | 1740

Row | Cell Line | AUC (GDC0941) | IC50 (GDC0941) [nM] | AUC (SB 216763) | IC50 (SB 216763) [nM] | AUC (Pazopanib) | IC50 (Pazopanib) [nM] | AUC (CEP-701) | IC50 (CEP-701) [nM] | AUC (MG-132) | IC50 (MG-132) [nM] | AUC (Sunitinib) | IC50 (Sunitinib) [nM] | AUC (AR-42) | IC50 (AR-42) [nM]
19 | NCI-H211 (small cell lung carcinoma, adherent) | 0.899 | > 4000 | 0.964 | > 10000 | 0.972 | > 8000 | 0.743 | 607 | 0.986 | > 1000 | 0.878 | 7720 | 0.265 | 70
20 | NCI-H526 (small cell lung carcinoma, suspension) | 0.989 | > 4000 | 0.981 | > 10000 | 0.937 | > 8000 | 0.55 | 170 | 0.947 | > 1000 | 0.96 | > 8000 | 0.442 | 224
21 | NCI-H747 (large intestine, adherent) | 0.572 | 412 | 0.95 | > 10000 | 0.948 | > 8000 | 0.804 | 1270 | 0.754 | 405 | 0.824 | 6180 | 0.64 | 850
22 | NCI-H1304 (small cell lung carcinoma, suspension) | 0.859 | 3740 | 0.988 | > 10000 | 0.933 | > 8000 | 0.903 | > 2000 | 0.821 | 639 | 0.91 | > 8000 | 0.849 | 4310
23 | NCI-H1417 (small cell lung carcinoma, suspension) | 0.42 | 145 | 0.982 | > 10000 | 0.953 | > 8000 | 0.446 | 86.6 | 0.981 | > 1000 | 0.982 | > 8000 | 0.337 | 103
24 | NCI-H1770 (non-small cell lung carcinoma, suspension) | 0.828 | 2060 | 0.992 | > 10000 | 0.974 | > 8000 | 0.844 | 1170 | 0.992 | > 1000 | 0.91 | > 8000 | 0.51 | 340
25 | NCI-H1836 (small cell lung carcinoma, suspension) | 0.85 | 3500 | 0.988 | > 10000 | 0.988 | > 8000 | 0.913 | > 2000 | 0.899 | > 1000 | 0.942 | > 8000 | 0.619 | 706
26 | NCI-H2135 (non-small cell lung carcinoma, adherent) | 0.99 | > 4000 | 0.989 | > 10000 | 0.989 | > 8000 | 0.991 | > 2000 | 0.919 | > 1000 | 0.95 | > 8000 | 0.428 | 205
27 | NKM-1 (acute myeloid leukaemia, suspension) | 0.641 | 622 | 0.903 | > 10000 | 0.913 | > 8000 | 0.342 | 45 | 0.872 | > 1000 | 0.292 | 127 | 0.281 | 75
28 | NU-DUL-1 (B-cell lymphoma, suspension) | 0.965 | > 4000 | 0.993 | > 10000 | 0.946 | > 8000 | 0.401 | 71 | 0.855 | 565 | 0.843 | 4100 | 0.256 | 76.4
29 | OCI-AML3 (acute myeloid leukaemia, suspension) | 0.71 | 884 | 0.99 | > 10000 | 0.981 | > 8000 | 0.658 | 320 | 0.792 | 382 | 0.906 | > 8000 | 0.331 | 117
30 | OCI-LY-19 (B-cell lymphoma, suspension) | 0.73 | 1060 | 0.986 | > 10000 | 0.868 | 6370 | 0.318 | 40.6 | 0.857 | 713 | 0.656 | 1300 | 0.303 | 94.4
31 | OCUB-M (breast, adherent) | 0.682 | 745 | 0.988 | > 10000 | 0.806 | 3420 | 0.88 | 1600 | 0.572 | 95.3 | 0.89 | 7060 | 0.458 | 250
32 | ONS-76 (medulloblastoma, adherent) | 0.952 | > 4000 | 0.984 | > 10000 | 0.962 | > 8000 | 0.511 | 134 | 0.609 | 128 | 0.885 | > 8000 | 0.528 | 384
33 | P31-FUJ (acute myeloid leukaemia, suspension) | 0.956 | > 4000 | 0.989 | > 10000 | 0.987 | > 8000 | 0.712 | 418 | 0.99 | > 1000 | 0.995 | > 8000 | 0.575 | 487
34 | PL-21 (acute myeloid leukaemia, suspension) | 0.652 | 711 | 0.983 | > 10000 | 0.973 | > 8000 | 0.42 | 72.7 | 0.891 | > 1000 | 0.758 | 3200 | 0.448 | 225
35 | PSN1 (pancreas, adherent) | 0.923 | > 4000 | 0.945 | > 10000 | 0.908 | > 8000 | 0.619 | 252 | 0.685 | 187 | 0.707 | 1710 | 0.317 | 108
36 | QIMR-WIL (acute myeloid leukaemia, suspension) | 0.861 | 3210 | 0.987 | > 10000 | 0.896 | > 8000 | 0.468 | 103 | 0.79 | 431 | 0.808 | 4010 | 0.231 | 54.4
